Read-outs that look alike come from different tables or passages of the source.
Test system: HeLa-hACE2 cells
Experiment: Immunofluorescence-based antiviral assay with LysoTracker dye in HeLa-hACE2
Conditions: read-out: EC50 against SARS-CoV-2 from the LysoTracker assay

SMILES: C[C@H](NC(=O)[C@H](Cc1ccc(O)cc1)NC(=O)OCc1ccccc1)C(=O)C=[N+]=[N-]
- EC50 (24 h): 0.04 µM

SMILES: CN1CCN(C(=O)N[C@@H](Cc2ccccc2)C(=O)N[C@H](/C=C/S(=O)(=O)c2ccccc2)CCc2ccccc2)CC1 [K777]
- EC50: 0.0006 µM

Source: PMC10055926
